From publication PMC4336329 (PLoS ONE, 2015)
Screen size: about 310,000 compounds; about 2,200 (0.71%) showed an effect of 50% or more. The effect is printed as a negative number. Some of the results follow.

Molecular target: human ether-à-go-go-related gene (hERG) potassium channel (human, UniProt Q12809)
Assay: primary screen, population patch clamp on CHO cells stably expressing hERG

human ether-à-go-go-related gene (hERG) potassium channel, sequence (Q12809 whole entry, looked up): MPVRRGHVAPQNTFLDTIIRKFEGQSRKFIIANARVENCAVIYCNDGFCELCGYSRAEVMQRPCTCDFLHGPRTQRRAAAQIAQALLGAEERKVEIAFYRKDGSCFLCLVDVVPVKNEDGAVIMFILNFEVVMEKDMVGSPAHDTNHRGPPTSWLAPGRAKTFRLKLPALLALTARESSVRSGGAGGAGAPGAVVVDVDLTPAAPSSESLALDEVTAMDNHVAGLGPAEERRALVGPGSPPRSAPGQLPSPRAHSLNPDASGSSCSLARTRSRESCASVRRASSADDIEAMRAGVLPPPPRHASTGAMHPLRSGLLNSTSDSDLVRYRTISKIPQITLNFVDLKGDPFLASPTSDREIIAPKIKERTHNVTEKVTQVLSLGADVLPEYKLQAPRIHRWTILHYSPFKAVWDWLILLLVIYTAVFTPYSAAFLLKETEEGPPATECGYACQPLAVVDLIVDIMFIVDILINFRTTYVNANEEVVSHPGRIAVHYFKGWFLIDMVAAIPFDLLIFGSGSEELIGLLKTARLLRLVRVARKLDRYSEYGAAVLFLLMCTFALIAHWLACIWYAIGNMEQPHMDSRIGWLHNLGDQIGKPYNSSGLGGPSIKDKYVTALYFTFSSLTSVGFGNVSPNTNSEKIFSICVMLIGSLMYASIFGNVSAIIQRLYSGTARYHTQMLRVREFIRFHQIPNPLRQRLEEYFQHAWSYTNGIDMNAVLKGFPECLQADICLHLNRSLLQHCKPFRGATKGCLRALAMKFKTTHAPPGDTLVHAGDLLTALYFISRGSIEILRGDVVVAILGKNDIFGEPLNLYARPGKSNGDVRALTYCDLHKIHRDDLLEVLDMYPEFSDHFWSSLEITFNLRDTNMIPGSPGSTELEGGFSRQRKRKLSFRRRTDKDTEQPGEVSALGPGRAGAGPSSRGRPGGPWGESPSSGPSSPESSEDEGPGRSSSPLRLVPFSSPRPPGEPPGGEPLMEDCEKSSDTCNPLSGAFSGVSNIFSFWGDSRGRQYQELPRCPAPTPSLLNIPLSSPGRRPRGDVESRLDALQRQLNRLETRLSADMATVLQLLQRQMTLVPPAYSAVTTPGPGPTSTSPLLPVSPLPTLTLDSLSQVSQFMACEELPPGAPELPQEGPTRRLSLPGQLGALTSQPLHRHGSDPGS

Structure (SMILES)	hERG current change (%, negative = inhibition) at 1uM
COc1ccc(CC(=O)Oc2ccc(C)cc2Br)cc1OC	10.5%
O=C1C2C(C(=O)N1Cc1cccnc1)C1C=CC2C12CC2 (centres unmarked)	8.2%
CCCOc1ccc(-c2nc(C#N)c(NCCCn3ccnc3)o2)cc1	0.514%
O=C(NCc1ccc(Cl)cc1Cl)C(=O)N1CCCCC1	7%
COc1ccc(C2=NS(=O)(=O)N(C)C(C(=O)Nc3ccc(OC)c(OC)c3)=C2)cc1	-0.291%
COc1ccc(/C=N/S(=O)(=O)c2ccccc2)cc1OC	19.9%
O=C(O)c1cccc(S(=O)(=O)Nc2ccc3[nH]c(=O)[nH]c3c2)c1	6.32%
CCNC(=O)c1cc(S(=O)(=O)N2CCSCC2)ccc1OC	19.3%
Nc1nc(NC(=O)/C=C\C(=O)O)nn1-c1ccccc1	21.4%
COc1cc(C(=O)NCCc2ccc3c(c2)OCCO3)ccc1OCC(=O)N1CCOCC1	-10.5%
O=C(C1CC(=O)N(C2CCCC2)C1)N1CCN(c2ccccc2)CC1 (centres unmarked)	14.7%
c1ccc(N2CCN(c3ncnc4scc(-c5cccs5)c34)CC2)cc1	6.78%
CCn1c(SCC(=O)NC2CC2)nnc1-c1ccccn1	6.93%
COC(=O)c1ccc2nc(NC(=O)CCS(=O)(=O)c3ccccc3)sc2c1	2.32%
Cc1ccccc1Nc1nc(N)nc(COC(=O)[C@@H](NC(=O)c2c(F)cccc2F)C(C)C)n1	3.7%
Cc1cc(NC(=O)C2CCCCC2)n(-c2nc3ccccc3[nH]2)n1	15.1%
O=C(O)c1ccc(N/N=C/c2cccc3cccnc23)cc1	0.832%
Cn1ncc(Br)c1NC(=O)c1ccco1	21.3%
Cc1c(C(=O)NCc2ccccc2CN2CCCC2)oc2ccc(F)cc12	-57.4%
CC(C)n1nnnc1CN1CCN(C)CC1.Cl	3.2%
COc1ccc(N2CCN(CCNC(=O)c3ccc(NC(=O)C4CCCO4)cc3)CC2)cc1 (centres unmarked)	11%
COc1cccc(/C=N/NC(=O)c2nc(-c3ccccc3)cc(-c3ccccc3)n2)c1	1.15%
CCOc1cc(-c2noc(CCC(=O)Nc3cccnc3)n2)ccc1OC	14.1%

Structure (SMILES)	hERG current change (%, negative = inhibition) at 1uM
CCOC(=O)c1ccc(NC(=O)CCC(CC)C(=O)O)cc1 (centres unmarked)	9.56%
CCc1ccc(-c2cc(C)no2)cc1S(=O)(=O)Nc1ccc(C)cn1	7.95%
CC1CCc2nc(NC(=O)CSc3nc4ccccc4o3)sc2C1 (centres unmarked)	11.9%
Nc1nnc(CSCc2ccc(F)cc2)s1	4.93%
O=C1Nc2cc(C(=O)N3CCN(c4ccccc4F)CC3)ccc2NC1CSCc1ccccc1F (centres unmarked)	16%
CCOC(=O)c1c(-n2c(C)cc(/C=C3\C(=O)NC(=O)N(C)C3=O)c2C)sc2c1CCCC2	13.4%
CC(=O)c1sc(NC(=O)c2c(F)cccc2F)nc1-c1ccccc1	-1.47%
CCN(CC)CCNC(=O)CCc1c(C)nc2c(c(C)nn2-c2ccc(C)c(C)c2)c1C	-5.53%
NC(=O)c1c(NC(=O)c2ccc(S(=O)(=O)N(CCCl)CCCl)cc2)sc2c1CCCCC2	11.9%
O=C(Cn1c(=O)oc2cc(S(=O)(=O)N3CCCC3)ccc21)Nc1ccccc1Br	10.7%
COc1ccc(/C=N/c2nc3ccccc3n2C)cc1OC	2.4%
CCOC(=O)c1[nH]c(CN2CCN(c3ccc(OC)cc3)CC2)c(C(=O)OCC)c1C	5.02%
COC(=O)c1sccc1NC(=O)c1cccc(OC)c1	13.8%
O=C(COc1ccc(S(=O)(=O)N2CCCC2)cc1Cl)NC1CC1	0.0948%
CN(CC(=O)Nc1ccc(F)c(F)c1F)C(=O)C1CCCO1 (centres unmarked)	8.71%
O=C(CSc1nnnn1C1CCCC1)N1CCOCC1	19%
O=C(Nc1ccc(F)cc1)Nc1cccnc1Cl	7.39%
CCN(CC)S(=O)(=O)c1ccc(C(=O)NCCc2cc3c(OC)ccc(OC)c3[nH]c2=O)cc1	-9.11%
CN1CCN(c2ccc(NC(=O)COc3ccccc3[N+](=O)[O-])cc2)CC1	8.45%
CCOc1ccccc1-n1c(COc2ccccc2)nnc1SCC(N)=O	8.48%
Cn1nnnc1SCc1ccc(C(=O)Nc2nccs2)cc1	-0.552%
Cc1cccc(C)c1NC(=O)CSC(=O)c1sc2ccccc2c1Cl	20.1%
Cc1ccc(NC(=O)NNc2cccc(Cl)n2)cc1	-6.33%

Structure (SMILES)	hERG current change (%, negative = inhibition) at 1uM
CCCCCC(=O)N/N=C(\C)c1ccccn1	-1.57%
CN(CCCC1CCCC1)C(=O)c1cc(COc2c(F)cccc2F)on1	0.357%
COc1ccc(CNC(=O)Cn2nc(C)c3c(C)n(-c4ccc(C)cc4)nc3c2=O)cc1OC	15.7%
CCC(=O)N1CCN(c2ccccc2NC(=S)NC(=O)c2cccc([N+](=O)[O-])c2)CC1	-33.5%
Cc1cc(C)c2c(=O)[nH]c(SCc3ccccc3)nc2n1	3.77%
CCOc1ccc2oc(-c3ccccc3)c(C(=O)O)c2c1	9.3%
COc1ccc(NC(=S)NCc2ccc3c(c2)OCO3)cc1	15.5%
CCOc1ccc(S(=O)(=O)Nc2cccc(C(=O)N(C)Cc3cccc(OC)c3OC)c2)cc1	-11.9%
Cc1cc(C(F)(F)F)nc(SCc2ccc(C(=O)O)o2)n1	-2.85%
Cc1oc(-c2ccccc2F)nc1CSCC(=O)NC1CC1	7.06%
CC1(/[N+]([O-])=C/c2ccc(Cl)cc2Cl)CCCCC1=O (centres unmarked)	10.5%
CC(=O)C(C(C)=O)C(c1ccccc1)c1nc2ccccc2[nH]c1=O (centres unmarked)	9.57%
CC[n+]1c(/C=C2/C=C(C)CC(C)C2)sc2ccccc21.[I-] (centres unmarked)	12.9%
O=C(Nc1cc(Cl)ccc1-n1cncn1)C1CC1	5.31%
O=C(O)Cn1cc(CN2CCOCC2)c2ccccc21	12.5%
Cc1ccc(C(=O)Nc2nn(C)c3cccc(F)c23)cc1	8.68%
c1ccc2c(c1)[nH]c1c(NCC3CCCO3)ncnc12 (centres unmarked)	14.2%
COc1ccccc1CNC(=O)CCS(=O)(=O)c1ccc2c(c1)CCN2C(C)=O	20.6%
Cc1cc(Br)c(OCC(=O)NN)c2c1CCC2	10.9%
CC(=O)c1c(C)[nH]c(C(=O)COc2ccc(C#N)cc2)c1C	0.947%
CCOc1cccc2c1OC1(C)CC2NC(=O)N1c1cccc(F)c1 (centres unmarked)	14.4%
CC(=O)N(Cc1cc2cc(C)c(C)cc2n2nnnc12)CC1COCCO1 (centres unmarked)	-6.09%
COc1cc(/C=C/C(=O)O)cc(S(=O)(=O)Nc2ccccc2SC)c1OC	13.9%

Structure (SMILES)	hERG current change (%, negative = inhibition) at 1uM
COc1ccc(S(=O)(=O)N2CCc3ccccc32)cc1C(=O)NC1(C)CCS(=O)(=O)C1 (centres unmarked)	14.1%
CC12CCC(C(=O)N3CCN(c4ccccc4)CC3)(CC1=O)C2(C)C (centres unmarked)	7.53%
O=C(c1cc2c(ccc3ccccc32)o1)N1CCCCC1	14.4%
Cn1c(SCc2cc(=O)[nH]c3ccccc23)nnc1-c1ccc(Br)cc1	7.32%
CC(=O)Oc1ccc2occ(-c3ccccc3)c2c1	16%
Cc1ccc(C(c2nnnn2CS(=O)(=O)c2ccc(C)cc2)N2CCC(C)CC2)cc1 (centres unmarked)	7.16%
COc1ccc(/C=N/Nc2cc(N(C)C)nc(N(C)C)n2)cc1	3.84%
O=C(O)CCCCCn1c(SCC(=O)N2CCCC2)nc2ccsc2c1=O	13.9%
COc1ccc(/C=C(\NC(=O)c2cccs2)C(=O)Nc2ccccc2C)cc1OC	11.9%
O=C(Nc1nc(-c2ccncc2)cs1)C1COc2ccccc2O1 (centres unmarked)	-6.37%
Cc1ccc(-n2nc3c(N4CCC(C(=O)NCCc5ccco5)CC4)nnc(C)c3c2C)cc1	4.24%
O=C(CSc1nnc(CNC(=O)c2cccs2)o1)Nc1ccccc1F	10.2%
COc1cc(CC(=O)OCC(=O)N2CCCCC2)cc(OC)c1OC	12.5%
O=C(NC1CCN(Cc2ccccc2)CC1)C1CCN(S(=O)(=O)c2cccc3cccnc23)CC1	3.33%
COc1ccccc1NC(=O)CCc1c(C)[nH]c(=O)c(C#N)c1C	-11.5%
C[C@@H]1O[C@@H](Oc2c(-c3cc(O)c(O)c(O)c3)oc3cc(O)cc(O)c3c2=O)[C@H](O)[C@H](O)[C@H]1O	-6.82%
Cc1c(C(=O)Nc2ccc(S(=O)(=O)Nc3ncccn3)cc2)oc2ccc(Cl)cc12	-11.4%
COc1cc2cnc(Cl)nc2cc1OC	10.1%
COc1ccc(NC(=O)CN(C)C(=O)c2c(-c3c(F)cccc3Cl)noc2C)cc1	2.1%
COc1ccc(NC(=O)CCC(=O)c2cccs2)cc1S(=O)(=O)Nc1ccccc1Cl	10.7%
